The results in this text go back to PMC4336329 (PLoS ONE, 2015).

Screen size: about 310,000 compounds; about 14,000 (4.5%) showed an effect of 50% or more. Effects have a minus sign here. This is one part of the list.
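Further: peak tail current of the secondary pulse compared with the same well before compound.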

For the test, the target named is human ether-à-go-go-related gene (hERG) potassium channel (human, UniProt Q12809). Nature of the test: primary screen, population patch clamp on CHO cells stably expressing hERG.
human ether-à-go-go-related gene (hERG) potassium channel, sequence (Q12809 whole entry, looked up): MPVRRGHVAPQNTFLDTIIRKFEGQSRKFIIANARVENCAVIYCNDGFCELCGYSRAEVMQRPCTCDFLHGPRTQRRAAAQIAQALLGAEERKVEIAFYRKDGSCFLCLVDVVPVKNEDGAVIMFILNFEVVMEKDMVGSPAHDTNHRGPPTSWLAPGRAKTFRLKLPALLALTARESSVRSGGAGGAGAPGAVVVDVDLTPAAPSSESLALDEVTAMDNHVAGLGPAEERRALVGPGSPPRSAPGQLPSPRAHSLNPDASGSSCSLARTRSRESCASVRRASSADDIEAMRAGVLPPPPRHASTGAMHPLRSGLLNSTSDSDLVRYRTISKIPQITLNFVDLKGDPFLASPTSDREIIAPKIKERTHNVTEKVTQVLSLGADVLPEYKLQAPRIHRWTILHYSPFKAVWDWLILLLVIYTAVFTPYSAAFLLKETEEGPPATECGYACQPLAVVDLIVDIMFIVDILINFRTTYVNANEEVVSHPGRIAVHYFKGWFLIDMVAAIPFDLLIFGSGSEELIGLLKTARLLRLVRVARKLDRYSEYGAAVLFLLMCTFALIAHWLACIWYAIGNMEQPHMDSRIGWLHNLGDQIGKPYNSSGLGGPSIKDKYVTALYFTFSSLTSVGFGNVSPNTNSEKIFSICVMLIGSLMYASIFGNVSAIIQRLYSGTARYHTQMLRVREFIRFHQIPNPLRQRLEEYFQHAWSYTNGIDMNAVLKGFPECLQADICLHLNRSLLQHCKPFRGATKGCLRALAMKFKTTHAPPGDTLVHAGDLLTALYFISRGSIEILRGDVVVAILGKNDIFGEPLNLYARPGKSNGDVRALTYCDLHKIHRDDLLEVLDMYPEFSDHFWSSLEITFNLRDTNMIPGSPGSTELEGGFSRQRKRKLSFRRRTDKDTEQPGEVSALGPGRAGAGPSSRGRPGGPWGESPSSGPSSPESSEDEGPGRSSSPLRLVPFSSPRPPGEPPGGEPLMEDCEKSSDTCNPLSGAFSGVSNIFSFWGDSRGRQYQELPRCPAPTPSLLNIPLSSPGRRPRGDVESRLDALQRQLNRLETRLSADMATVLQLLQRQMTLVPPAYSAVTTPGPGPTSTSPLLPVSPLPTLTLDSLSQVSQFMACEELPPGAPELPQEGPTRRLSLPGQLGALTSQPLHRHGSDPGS
With `Cn1c(=O)c(=O)n(C)c2cc([N+](=O)[O-])c([N+](=O)[O-])cc21`, the “hERG current change (%, negative = inhibition) at 10uM” value came out at 26.1%.
With `Clc1ccc(CN(CC2CCCO2)C(c2cccs2)c2nnnn2C2CCCC2)cc1` (stereo not drawn) the figure was 3.97%.
With `C(=N\N1CCN(C2c3ccccc3-c3ccccc32)CC1)/c1ccncc1` the figure was 3.16%.
The figure for `CCCOc1ccc(/C=N/Nc2cc(N3CCOCC3)ncn2)c(O)c1` is 13.4%.
Turning to `COc1ccc(C(c2nnnn2CCc2ccccc2)N2CCN(C3CCCC3)CC2)cc1OC.Cl` (stereo not drawn), the “hERG current change (%, negative = inhibition) at 10uM” value is on record as -64.3%.
`CCN(Cc1ccccc1)C(=O)COC(=O)c1cc(Cl)nc(Cl)c1`: the “hERG current change (%, negative = inhibition) at 10uM” value is -0.0442%.
For `CC(C)N(CC(N)=O)C(=O)c1sc2cc(F)ccc2c1Cl`, the “hERG current change (%, negative = inhibition) at 10uM” value was found to be 11.8%.
The figure for `C(=N\N1CCN(c2ccccc2)CC1)/c1ccccc1` is -8.57%.
The figure for `COC(=O)C(C)N=Cc1ccccc1` (stereo not drawn) is 12.9%; for `O=C(NCCc1ccccc1)C(c1ccccc1F)N(C(=O)c1csnn1)C1CC1` (stereo not drawn) it is -1.1%.
The figure for `CCCc1[nH]nc2c1C(c1ccc(OC(=O)N3CCOCC3)c(OC)c1)C(C#N)=C(N)O2` (stereo not drawn) is 6.18%.
As to `C/C=C/C(=O)OCC(=O)Nc1ccc(C)c(S(=O)(=O)N(C)C)c1`, the “hERG current change (%, negative = inhibition) at 10uM” value came out at 2.59%.
The figure for `CCNc1nc(OC)nc(SCC(N)=O)n1` is -1.41%; for `O=C1CNC(=O)N1Cc1ccc(Br)cc1` it is 0.772%.
Take `Cc1cccc(N(CC(=O)N2CCOCC2)S(C)(=O)=O)c1`: the “hERG current change (%, negative = inhibition) at 10uM” value amounted to 6.69%.
With `O=C(CC1Nc2cccc3cccc(c23)NC1=O)Nc1ccccc1` (stereo not drawn) the figure was -4.74%; with `COC(=O)C(Cc1ccc(O)cc1)NC(=O)c1ccccc1` (stereo not drawn), 13.3%; with `Cc1nc(NC(=O)c2cncc(Br)c2)ccc1Br`, 9.65%.
For `O=[N+]([O-])c1cccc(/C=N/Nc2ncc(Br)cn2)c1`, the “hERG current change (%, negative = inhibition) at 10uM” value was 19.6%.
For `Cc1nc(C)c(-c2ccc(SCc3ccccc3F)nn2)s1`, the “hERG current change (%, negative = inhibition) at 10uM” value is listed as 4.94%.
The figure for `COc1cc(/C=C2\SC(=S)N(Nc3ccccc3)C2=O)cc(OC)c1OC` is -0.509%.
With `CCOP1(=S)Oc2cc3c(cc2C(C(=O)OC)(C(F)(F)F)O1)OCO3` (stereo not drawn) the figure was 6.11%.
Regarding `O=C(COC(=O)c1ccc(Br)o1)Nc1nc2ccccc2s1`, the “hERG current change (%, negative = inhibition) at 10uM” value is on record as -13.8%.
The figure for `O=C(C(Sc1ccccc1)c1ccccc1)N1CCOCC1` (stereo not drawn) is 9.45%; for `Cc1ccc(-c2n[nH]c(=O)c3ccccc23)cc1S(=O)(=O)Nc1ccc(F)cc1` it is 1.93%; for `Nc1c(-c2ccc(F)cc2)cnn1C1CCS(=O)(=O)C1` (stereo not drawn) it is 5.8%.
For `COc1ccc(/C=C/C(=O)NC(=S)NCc2ccccc2)cc1OC`, the “hERG current change (%, negative = inhibition) at 10uM” value is given as 10.7%.
The figure for `CC(CC(F)(F)F)N1CCC(n2nccc2NC(=O)CCOc2ccccc2)CC1` (stereo not drawn) is -5.27%; for `COCCn1c(=O)[nH]c(=O)c2cc(C(=O)c3cc(Cl)ccc3O)cnc21` it is -35.7%; for `Cc1ccc(NS(=O)(=O)c2ccc(OCC(=O)NCC3CCCO3)cc2)cc1` (stereo not drawn) it is -8.82%.
Consider `CC(C)c1ccc(NC(=O)COC(=O)/C=C/c2cccc([N+](=O)[O-])c2)cc1`, for which the “hERG current change (%, negative = inhibition) at 10uM” value was 6.88%.
Regarding `CCCc1cc(=O)n2[nH]c(C)c(-c3ccc(OC)cc3)c2n1`, the “hERG current change (%, negative = inhibition) at 10uM” value is listed as -13.9%.
The figure for `CCSc1nnc(-c2cccs2)o1` is 10.1%; for `CCOC(=O)CSc1nc(N2CCOCC2)c2c(c1C#N)CC(C)(C)OC2` it is -38.5%; for `Cl.c1ccc(CC2CNc3ccccc3CN2)cc1` (stereo not drawn) it is 2.14%.
With `Cn1c(C2CCCCC2)nc2ccccc21` the figure was -3.5%; with `Cc1ccccc1NC1c2ccccc2C(=O)N1Cc1ccco1` (stereo not drawn), -11.6%.
The figure for `O=C(c1ccc2c(c1)OCO2)N1CCN(c2ccccc2F)CC1` is -10.2%; for `CCCCS/C(=C(/C#N)C(N)=O)c1cc2c([nH]1)CCCC2` it is -12.3%.
Regarding `CCn1c(C)nc2cc(C(=O)N/N=C/c3ccc(OC)cc3)ccc21`, the “hERG current change (%, negative = inhibition) at 10uM” value is -31.8%.
With `O=C(NCC1CCCO1)c1ccc(COc2ccccc2)cc1` (stereo not drawn) the figure was -56.3%.
The figure for `O=C(N=C1SC2CS(=O)(=O)CC2N1c1ccccc1)C1CC1` (stereo not drawn) is 19.5%; for `Cc1ccc(S(=O)(=O)N2CCCC(c3nc(-c4ccc(C)o4)no3)C2)cc1` (stereo not drawn) it is -1.88%.
Regarding `COc1ccccc1N1CCN(C2CCCN(C(=O)c3ccoc3C)C2)CC1` (stereo not drawn), the “hERG current change (%, negative = inhibition) at 10uM” value is reported as 0.647%.
The figure for `CCC(C)(C)NC(=O)C(c1ccc(OC)cc1)N(CC1CCCO1)C(=O)CCC(=O)Nc1cc(C)on1` (stereo not drawn) is -19.4%.
With `COc1cc(/C=N/Nc2ccccc2[N+](=O)[O-])cc(OC)c1O` the figure was 1.15%.
As for `O=C(/C=C/c1ccc(F)cc1)c1cc(Br)ccc1O`, the “hERG current change (%, negative = inhibition) at 10uM” value was 17.2%.
With `CC1CN(C(=O)c2cc3cc([N+](=O)[O-])ccc3s2)CC(C)O1` (stereo not drawn) the figure was -19.3%.
With `CCOC(=O)[C@H]1[C@H]2COc3ccc(OC)cc3[C@@H]2N2C(=O)CN(CCc3c[nH]c4ccccc34)C(=O)[C@@]12C`, the “hERG current change (%, negative = inhibition) at 10uM” value is -12.9%.
The figure for `Cc1ccccc1C(=O)NNC(=O)c1ccc(Br)cc1` is 8.09%; for `Cc1cnc(C(=O)OCC(=O)Nc2c(Cl)cc(Cl)cc2Cl)cn1` it is 12.7%; for `COc1cccc(OC)c1C(=O)Nc1ccc2nc(C)c(C)nc2c1` it is -4.75%.
The figure for `COc1ccc(NC(=O)CCS(=O)(=O)c2ccc(OC)cc2)cc1` is 3.33%; for `CCc1ccc(CNC(=O)c2ccc(OC3CCN(C(C)=O)CC3)c(OC)c2)nc1` it is 8.11%; for `CN(C)c1ccnc2sc(C(N)=O)c(N)c12` it is 5.57%.
Consider `COC(=O)c1c(NC(=O)C2Cc3ccccc3C(=O)O2)sc2c1CCCC2` (stereo not drawn), for which the “hERG current change (%, negative = inhibition) at 10uM” value worked out at 17.1%.
With `CC(=O)NC1C(=O)N=C(SCC(=O)NC(C)c2ccccc2)NC1=O` (stereo not drawn) the figure was 18.1%; with `O=C(COc1ccc(F)cc1)Nc1nc(-c2ccccn2)cs1`, -6.59%.
Turning to `CCOC(=O)CNC(=O)N1CCCC(CCC(=O)NCc2ccc(F)c(F)c2)C1` (stereo not drawn), the “hERG current change (%, negative = inhibition) at 10uM” value stood at 13.9%.
The figure for `COc1ccccc1OCC(=O)NCCCN1CCOCC1` is 10.7%; for `COc1ccccc1OCCCCNCCO` it is 6.62%.
With `COc1ccccc1N1CCN(C2CCCN(C(=O)c3ccnc4ccc(C)cc34)C2)CC1` (stereo not drawn) the figure was -17.8%; with `CC(C)Cn1cc(C(=O)NCC2CCCO2)c2c3ccccc3n(C)c2c1=O` (stereo not drawn), 0.13%.
Turning to `O=C(CC1OC(=O)c2ccccc21)Nc1ccccc1N1CCOCC1` (stereo not drawn), the “hERG current change (%, negative = inhibition) at 10uM” value is -9.97%.
With `CC1CCCN(Cc2nc(Cc3ccccc3Cl)no2)C1` (stereo not drawn) the figure was 4.32%; with `COc1ccc(-n2c(=O)c3c(C)c(C)sc3n(Cc3cccc(F)c3)c2=O)c(OC)c1`, 17.2%.
The figure for `COc1ccccc1N(CC(O)Cn1c2ccccc2c2ccccc21)S(=O)(=O)c1ccccc1` (stereo not drawn) is 20.5%; for `Nc1nnn(-c2ccccc2)c1-c1ccccc1` it is 14.2%; for `O=C(NCc1ccccc1)c1cccnc1Sc1ccccc1` it is 18.3%.
With `CC(C)OC(=O)c1ccc(N2CCN(c3ccc(F)cc3)CC2)nc1` the figure was -6.87%; with `O=C(COC(=O)CNS(=O)(=O)c1ccc(Br)cc1Cl)Nc1ccc(N2CCOCC2)cc1`, -12.9%; with `CN1N=C(C(=O)N2CCc3c([nH]c4ccccc34)C2c2ccccc2Cl)CCC1=O` (stereo not drawn), -36.9%.
On to `COc1cc(C(=O)Nc2ccncc2)c([N+](=O)[O-])cc1OC`, for which the “hERG current change (%, negative = inhibition) at 10uM” value is reported as 17.8%.
The figure for `CC12CC3(C)CC(C)(C1)CC(C(=O)NC1=NCCS1)(C2)C3` is -17.1%; for `COc1ccccc1C(=O)C1CCCN(C(=O)c2ccccn2)C1` (stereo not drawn) it is 12.4%; for `COc1ccc(C2C(C#N)=C(C)NC3=C2S(=O)(=O)c2ccccc23)cc1` (stereo not drawn) it is -38.6%.
With `O=C(NCc1ccc(F)cc1)c1ccc(N2CCOCC2)c([N+](=O)[O-])c1` the figure was -39.6%.
Take `CCOC(=O)c1c(CN2CCCCC2)oc2ccc(OC)cc12.Cl`: the “hERG current change (%, negative = inhibition) at 10uM” value is -58.4%.
The figure for `COc1cc(OC)cc(C(=O)Nc2ccc(-c3nc4ccccc4o3)cc2)c1` is -12.9%; for `O=c1cnnc(N/N=C/c2cccs2)[nH]1` it is 13.5%.
With `O=C(NCc1ccco1)C1CCN(C(=O)c2ccc([N+](=O)[O-])cc2)CC1` the figure was -53%; with `Cc1ccc(NC(=O)CSc2nc3c([nH]c4ccccc43)c(=O)n2C)cc1`, 8.54%.
As for `Cc1cccc(Nc2nnc(SC/C(O)=C(\C#N)c3nc4ccccc4[nH]3)s2)c1`, the “hERG current change (%, negative = inhibition) at 10uM” value is recorded as 16.7%.
The figure for `Cc1ccc(N(C(=O)c2csnn2)C(C(=O)NC(C)(C)C)c2cccs2)cc1` (stereo not drawn) is -45.4%; for `Cc1cccc(NC(=O)C2CCN(S(=O)(=O)c3ccc4ccccc4c3)CC2)n1` it is -0.00682%.
Turning to `CCCOC(=O)CCNc1n[nH]c(=O)[nH]c1=O`, the “hERG current change (%, negative = inhibition) at 10uM” value is -3.66%.
For the compound `c1cc(-c2nnn(CCOCCn3nnc(-c4ccncc4)n3)n2)ccn1`, the “hERG current change (%, negative = inhibition) at 10uM” value is -0.329%.
With `Cc1ccc(-n2nc3c(N4CCC(C(=O)NCc5cccc(F)c5)CC4)nnc(C)c3c2C)cc1` the figure was -3.23%; with `O=C(O)c1ccc(NCc2ccncc2)cc1`, -10%.
Consider `Cc1ccc(CCNC(=O)CCc2nc3ccccc3[nH]2)cc1`, for which the “hERG current change (%, negative = inhibition) at 10uM” value is reported as -13.8%.
